Consider 32 sequences from publication PMC12820563, “FoxP3 forms a head-to-head dimer in vivo and stabilizes its multimerization on adjacent microsatellites”.

This is one part of the list.

This experiment concerns the target T1, MBP-FoxP1dN (Mus musculus, UniProt P58462 326-579).
T1 sequence: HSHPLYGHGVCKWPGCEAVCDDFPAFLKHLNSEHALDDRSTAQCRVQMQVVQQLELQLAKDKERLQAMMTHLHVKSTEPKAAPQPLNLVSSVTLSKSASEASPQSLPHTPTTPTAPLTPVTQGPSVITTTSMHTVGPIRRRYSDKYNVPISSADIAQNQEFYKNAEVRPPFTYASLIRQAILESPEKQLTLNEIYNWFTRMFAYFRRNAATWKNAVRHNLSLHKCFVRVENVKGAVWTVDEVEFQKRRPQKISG
As to the kind of experiment: PD-seq (MBP pull-down with sequencing); 20 mM Tris-HCl pH 7.5, 100 mM NaCl, 1.5 mM MgCl2, 0.4 uM protein, 0.1 uM dsDNA library, 30 min, room temperature, amylose pull-down; high values mean tight binding. To be noted: protein: recombinant; tags: His6-MBP; chain copies: 2; dsDNA, one strand shown. An outline of the steps: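 Protein and DNA were mixed at 0.4 µM and 0.1 µM and held for 30 min at room temperature in Tris pH 7.5 buffer with NaCl and MgCl2; the protein was a His6-MBP-tagged, N-terminally truncated mouse FoxP3 or FoxP1 fragment from E. coli, and the DNA a Klenow-filled double-stranded degenerate library. Amylose resin captured the complexes, which were washed three times. Binding is read as reads-per-million enrichment of pull-down versus input after Illumina sequencing, with replicates pooled.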
“GATGATTGTTCTCCCAGCTGATGAATTGATCGGATCGAGTAAACAAATTTTCCTAATCTTTCTGTTCAAGCGCCATCTAC”: the binding signal was 0.905 RPM ratio (pull-down/input).
In the case of “GATGATTGTTCTCCCAGCTGATGAATTTGAAATGTCGAGTAAACAAATTTTCCTAATCTTTCTGTTCAAGCGCCATCTAC”, the binding signal was 0.895 RPM ratio (pull-down/input).
As for “GATGATTGTTCTCCCAGCTGATGAATTAGGAAATTCGAGTAAACAAATTTTCCTAATCTTTCTGTTCAAGCGCCATCTAC”, the binding signal was 0.976 RPM ratio (pull-down/input).
As to “GATGATTGTTCTCCCAGCTGATGAATTGATCCCGTCGAGTAAACAAATTTTCCTAATCTTTCTGTTCAAGCGCCATCTAC”, the binding signal was 0.885 RPM ratio (pull-down/input).
On to “GATGATTGTTCTCCCAGCTGATGAATTCTAGTCATCGAGTAAACAAATTTTCCTAATCTTTCTGTTCAAGCGCCATCTAC”, for which the binding signal was 0.937 RPM ratio (pull-down/input).
For the sequence “GATGATTGTTCTCCCAGCTGATGAATTGAGTGGTTCGAGTAAACAAATTTTCCTAATCTTTCTGTTCAAGCGCCATCTAC”, the binding signal was 0.882 RPM ratio (pull-down/input).
With “GATGATTGTTCTCCCAGCTGATGAATTATGTTTATCGAGTAAACAAATTTTCCTAATCTTTCTGTTCAAGCGCCATCTAC” the figure was 2.99 RPM ratio (pull-down/input); with “GATGATTGTTCTCCCAGCTGATGAATTGTGTGTCTCGAGTAAACAAATTTTCCTAATCTTTCTGTTCAAGCGCCATCTAC”, 1.26 RPM ratio (pull-down/input); with “GATGATTGTTCTCCCAGCTGATGAATTGGGTCAATCGAGTAAACAAATTTTCCTAATCTTTCTGTTCAAGCGCCATCTAC”, 0.95 RPM ratio (pull-down/input).
As to “GATGATTGTTCTCCCAGCTGATGAATTTCTGACGTCGAGTAAACAAATTTTCCTAATCTTTCTGTTCAAGCGCCATCTAC”, the binding signal is 0.894 RPM ratio (pull-down/input).
For the sequence “GATGATTGTTCTCCCAGCTGATGAATTCTAGTTTTCGAGTAAACAAATTTTCCTAATCTTTCTGTTCAAGCGCCATCTAC”, the binding signal was 1.12 RPM ratio (pull-down/input).
As for “GATGATTGTTCTCCCAGCTGATGAATTGGATAAATCGAGTAAACAAATTTTCCTAATCTTTCTGTTCAAGCGCCATCTAC”, the binding signal is 1.09 RPM ratio (pull-down/input).
With “GATGATTGTTCTCCCAGCTGATGAATTGGAACGATCGAGTAAACAAATTTTCCTAATCTTTCTGTTCAAGCGCCATCTAC”, the binding signal is 0.889 RPM ratio (pull-down/input).
Regarding “GATGATTGTTCTCCCAGCTGATGAATTTCTAAAGTCGAGTAAACAAATTTTCCTAATCTTTCTGTTCAAGCGCCATCTAC”, the binding signal was 0.831 RPM ratio (pull-down/input).
To “GATGATTGTTCTCCCAGCTGATGAATTGGCAACATCGAGTAAACAAATTTTCCTAATCTTTCTGTTCAAGCGCCATCTAC” belongs 1.33 RPM ratio (pull-down/input).
To “GATGATTGTTCTCCCAGCTGATGAATTGTGGCAGTCGAGTAAACAAATTTTCCTAATCTTTCTGTTCAAGCGCCATCTAC” belongs 1.07 RPM ratio (pull-down/input); to “GATGATTGTTCTCCCAGCTGATGAATTTTCATCCTCGAGTAAACAAATTTTCCTAATCTTTCTGTTCAAGCGCCATCTAC”, 0.875 RPM ratio (pull-down/input).
As to “GATGATTGTTCTCCCAGCTGATGAATTGGATATATCGAGTAAACAAATTTTCCTAATCTTTCTGTTCAAGCGCCATCTAC”, the binding signal is 0.988 RPM ratio (pull-down/input).
Turning to “GATGATTGTTCTCCCAGCTGATGAATTCAGGGCATCGAGTAAACAAATTTTCCTAATCTTTCTGTTCAAGCGCCATCTAC”, the binding signal was 0.931 RPM ratio (pull-down/input).
Regarding “GATGATTGTTCTCCCAGCTGATGAATTAAGAGTGTCGAGTAAACAAATTTTCCTAATCTTTCTGTTCAAGCGCCATCTAC”, the binding signal is 0.917 RPM ratio (pull-down/input).
For the sequence “GATGATTGTTCTCCCAGCTGATGAATTCCAGAGGTCGAGTAAACAAATTTTCCTAATCTTTCTGTTCAAGCGCCATCTAC”, the binding signal was 0.691 RPM ratio (pull-down/input).
To “GATGATTGTTCTCCCAGCTGATGAATTGGGGCCCTCGAGTAAACAAATTTTCCTAATCTTTCTGTTCAAGCGCCATCTAC” belongs 0.808 RPM ratio (pull-down/input).
On to “GATGATTGTTCTCCCAGCTGATGAATTCGATGTATCGAGTAAACAAATTTTCCTAATCTTTCTGTTCAAGCGCCATCTAC”, for which the binding signal was 1.1 RPM ratio (pull-down/input).
Turning to “GATGATTGTTCTCCCAGCTGATGAATTAGAGCAATCGAGTAAACAAATTTTCCTAATCTTTCTGTTCAAGCGCCATCTAC”, the binding signal is 1.11 RPM ratio (pull-down/input).
To “GATGATTGTTCTCCCAGCTGATGAATTCGAGGAATCGAGTAAACAAATTTTCCTAATCTTTCTGTTCAAGCGCCATCTAC” belongs 0.836 RPM ratio (pull-down/input).
For the sequence “GATGATTGTTCTCCCAGCTGATGAATTCGTGAGATCGAGTAAACAAATTTTCCTAATCTTTCTGTTCAAGCGCCATCTAC”, the binding signal was 0.83 RPM ratio (pull-down/input).
Turning to “GATGATTGTTCTCCCAGCTGATGAATTATAGCAATCGAGTAAACAAATTTTCCTAATCTTTCTGTTCAAGCGCCATCTAC”, the binding signal was 1.28 RPM ratio (pull-down/input).
Turning to “GATGATTGTTCTCCCAGCTGATGAATTCATCTTCTCGAGTAAACAAATTTTCCTAATCTTTCTGTTCAAGCGCCATCTAC”, the binding signal was 0.855 RPM ratio (pull-down/input).
To “GATGATTGTTCTCCCAGCTGATGAATTAAGGATCTCGAGTAAACAAATTTTCCTAATCTTTCTGTTCAAGCGCCATCTAC” belongs 0.796 RPM ratio (pull-down/input).
For the sequence “GATGATTGTTCTCCCAGCTGATGAATTAGTCAGCTCGAGTAAACAAATTTTCCTAATCTTTCTGTTCAAGCGCCATCTAC”, the binding signal is 0.934 RPM ratio (pull-down/input).
For the sequence “GATGATTGTTCTCCCAGCTGATGAATTTTGTCGCTCGAGTAAACAAATTTTCCTAATCTTTCTGTTCAAGCGCCATCTAC”, the binding signal was 0.92 RPM ratio (pull-down/input).
For “GATGATTGTTCTCCCAGCTGATGAATTGATACCGTCGAGTAAACAAATTTTCCTAATCTTTCTGTTCAAGCGCCATCTAC”, the binding signal is 1.08 RPM ratio (pull-down/input).
